# According to the supplement of paper PMC11417369:
# Some of the results follow.
# System: PfSIP2 AP2 domain 1 (GST-tagged)
# Experiment: gcPBM binding intensity (ln(normalized median fluorescence intensity)); higher = stronger DNA binding
# How it was run: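 Binding of GST-tagged P. falciparum DNA-binding domains, expressed in E. coli and used at about 25 μg on average, was carried out for 1 h in 1× PBS containing 1% milk, 0.2 mg/ml BSA, 0.5% salmon testes DNA and 0.03% Triton X-100. The target was an Agilent 4 × 180k array of primer-extended double-stranded 36-bp intergenic genomic probes plus negative controls, read with Alexa488 anti-GST antibody at 488 nm. Binding intensity is the highest Masliner-normalised natural-log median intensity across replicate spots of either probe orientation.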
row,Sequence,gcPBM binding intensity (ln)
1,ATATATAACGTGCACACACACATTTACGTATGAATA [CACACA_site6948],10.4
2,AATAAAAATAATGAATGTACATATATATATACAATA [XGTACX_site3342],6.86
3,TTTTATTAAAACCACGCATGCAGAGGAAACGGTGAG [TGCATGCA_site1029],7.56
4,ATATATAATTTTTGCTGTACACAAAATATTAATTTA [XGTACX_site2057],7.3
5,ATTATATCATCTAAAACATGCACACATATGTACTCT [TGCATGCA_site949],7.12
6,GTTGAGAAAATATGTGCATGTCAGGTTAAATTTTTA [TGCATGCA_site744],7.7
7,ATATATATATATATATGTACATAATATATGTCCTAT [XGTACX_site5087],9.03
8,GTAAGCATAAATATATGTACATACATATACAGATAT [XGTACX_site3361],6.97
9,TAAGATAAAAAAAATGCATGTTCTTATAATATTGTC [TGCATGCA_site939],6.99
10,ATTAGTTTACACATATGTACATATATTACAACAAAA [XGTACX_site275],7.34
11,GGTGATATAATATATACATGCACATATATATTATTA [TGCATGCA_site970],9.65
12,TATGGAAATATATATTGTACGTATGACCTTTAAAAA [XGTACX_site3935],7.04
13,TTACAAAAAAATAATTGTACATACAATTTCTGTTAT [XGTACX_site877],6.99
14,TTTATATGTATGAAGTGTACACATATATTGTATTTT [XGTACX_site5731],7.24
15,ACACATTATAAAACTGTCGCTCATAAAGAAGAATGA [CACACA_negctrl_site999],6.93
16,GCAACAAAAAATCAGACATGCATTTTAAAATGAATA [TGCATGCA_site846],6.81
17,CATATTGAATATTTAACACACATTTCGCTTAATTCA [CACACA_site2086],6.79
18,TATAAAAAAAAAATTTGTACATAATAATATATATAT [XGTACX_site2074],8.4
19,TTATATATAAAATACTGTACATTTAATTGATGGTTT [XGTACX_site2073],6.95
20,GAATGAATTGTTATTAGTACACATGTGAATTATAAA [XGTACX_site6790],7.1
21,AAAAAGCAGGATTATACACACAAATATATATATGTT [CACACA_site1077],6.91
22,TATATAAATTTAATAACACACATATAAAAATGAATT [CACACA_site2366],6.95

row,Sequence,gcPBM binding intensity (ln)
1,ATTTTTTTTTTTTTTATTCCCCTTTCGAAAAAAACC [CACACA_negctrl_site1139],7.18
2,ATATATATATAACATTGTACACACAAAGAAATAATA [XGTACX_site6440],8.63
3,ATATGTTTACGTAAATGTACACGTCAGTATATTTCT [XGTACX_site8199],7.01
4,TTTTATAATAAGTATGTAAAAATTATATATATATAT [CACACA_negctrl_site711],9.1
5,AACTTGTATATATACACACACACACTATCTTTTTTT [CACACA_site8601],7.08
6,CTTTTATATGTCTAATGTACGGGCAATATAAATTTG [XGTACX_site8323],7
7,TTTTTCACATTTCAGTGTACATTTTAATCATATATA [XGTACX_site915],7.01
8,CGACAAAAATTTTACAGTACAGTATAAACCTTTTTA [XGTACX_site290],7.06
9,TATTTTTTTAAGTGCAGTACACTTAATTTCCCCCAA [XGTACX_site7328],7.99
10,ATTTTTTTTTTTTTTTTAAGACAAACTCTTAATTTA [CACACA_negctrl_site1389],6.78
11,ATTCCAAAAAAATCAAGTACTAATTTATTATATTAC [XGTACX_site3920],6.9
12,AAAAAAAAAAAAAAAAAAATATATTATATATATATA [XGTACX_negctrl_site467],9.19
13,TCAAAAAATATATTTGCACACTCAAAAAAAAAAAAA [CACACA_site860],7.21
14,TACACACATTACAGATGTACATAAAATTAAAAAAAT [XGTACX_site1804],7.21
15,TATATATATATAAATACATGCATATAATTAATCCAT [TGCATGCA_site400],8.89
16,ACAGGAGTATAACCTCGTACAAAATATATTTACCAT [XGTACX_site5805],7.13
17,CCTAGAAAAGCATATACACACGCGCAAAATAAAATT [CACACA_site4902],7.03
18,TCTTTAAAAAAAAAAAAAAAAAATTCCAAATAAATA [TGCATGCA_negctrl_site538],6.72
19,TAAAAATAAAGAAAATGTACATAAATAAAAATAAAG [XGTACX_site2279],7.32
20,TATATATATACATAATGTACAAGAATTTGTATTGAA [XGTACX_site627],8.26
21,TGTAGAAATGGGTGCACACACATATAAAATCTATAT [CACACA_site7224],12.2
22,TAAAAAAATAAATATACACACATATATATATATATA [CACACA_site1089],9.63

row,Sequence,gcPBM binding intensity (ln)
1,GGATTTATTATATATACACACATACAGATATATATA [CACACA_site5222],7.13
2,TCATTAAAAACTAAAAGTACTCAATATTATGAACAT [XGTACX_site7807],6.96
3,CATATATATTTGTTCACACACACACTAGAAAAAAAA [CACACA_site5380],7.29
4,ATAAAAAATAAAATAAATAAAAAATATTTACCCTTA [TGCATGCA_negctrl_site396],6.55
5,ATATTGTAGATATTGTGTACATATTTTACAACTTTT [XGTACX_site7621],6.94
6,TATGTACACCCATATACACACCTCTATAATATATAT [CACACA_site4563],7.29
7,ACATCATATTAAGAAAGTACAAAAAGAGAACATATA [XGTACX_site1268],6.96
8,AAACAAAATTTATTTCAAAGTTAATAATTTTTATGT [CACACA_negctrl_site232],6.79
9,ATGAATAAATAGGTCACACACAAATATATATAAATA [CACACA_site2416],6.98
10,TTGTTCGATATATGCACACAGTTTTGTTATTTTTCC [CACACA_site4972],7.37
11,CACTACACTGTTAATAGTACATATATTTAAAAAAAA [XGTACX_site7371],7.35
12,AAAAAAAACGGACACACACACATAAATATATATAAA [CACACA_site4260],7.32
13,CACACCCACCAACACACACACAAAAAAAAAAAGAAA [CACACA_site500],7.45
14,ATATTTTATTTTAATACACACAAGTTATATAATCAC [CACACA_site780],6.97
15,AAAAGGTATAGAAACACACACACGTGAATATAGTTT [CACACA_site1905],6.67
16,TACAAATTTATATAAAGTACAAAAAATAATAAAAAT [XGTACX_site7355],7.3
17,AAAAAAAAAAAAAGTGCACACATAAAAATATGATCT [CACACA_site8090],11.2
18,ACATATGTTTTATGTAGTACTTATTTATTATTATAT [XGTACX_site7528],7.27
19,TCAAATAATAAGTATGCATGCTATATTTATATATAC [TGCATGCA_site920],6.95
20,TACATTTTACTTGTTACACACATATAAAATTAACCA [CACACA_site2922],7.13
21,AAACGTACATAATACACACACATGTATACCTATAAA [CACACA_site7051],7.22
22,AGAAAAAAAAAAAGTACACACATATAATATATATAT [CACACA_site2973],8.34

row,Sequence,gcPBM binding intensity (ln)
1,AGTTAATGAATAGGCACACATATATCTGTATAAATA [CACACA_site4448],6.78
2,ATATATTATATAATATGTACATAATAAAATTTAAAT [XGTACX_site1900],7.13
3,ATCTAAATAATATATATATATAATATTAATAATATA [CACACA_negctrl_site1620],7.01
4,TTTTTATTTATATATATATATATATATTATATATAA [CACACA_negctrl_site1654],7.34
5,CTTGTCATTGGGCACACACACATGTATAGGTTATTA [CACACA_site3058],7.19
6,GAGTAAACATATATATGTACATAAAGTTAACATTGC [XGTACX_site2225],7.15
7,TGAACACCCACAAATACACACAAAAAAAATAAATAA [CACACA_site248],7.03
8,ATTTTTTTTCATATAACACACACACTAATATAATGT [CACACA_site9226],7.34
9,AATAAATAAATATATACACACATATCTGTCTACATA [CACACA_site5708],6.89
10,ACAAGATCTAGATACACACACATATCTCTCAATCTA [CACACA_site6453],7.04
11,AATAATTGAAAAACACAAAAATGATTTTCCATAAAT [CACACA_negctrl_site1555],6.51
12,GGGACAGGACGAAAAAATAAATAAATAAATAAAAAA [CACACA_negctrl_site155],7.04
13,GTAAAAAAATAGCACACACACAAAAACACGCACAAA [CACACA_site6723],7.52
14,GGAATAGTAATATATACACACAAATACAGATATATA [CACACA_site4213],6.94
15,AATTGAATTTTAAAAGAAAAAAAAAAAAAAAAATAA [XGTACX_negctrl_site195],6.77
16,TGGAGGTCAGTTCACAGTACCCAGAAACTCTACGGA [XGTACX_site4927],6.75
17,TTTTTTCAATTTTTTTTAAATAAACCACAAAAAAAA [CACACA_negctrl_site1701],6.94
18,TAATGTAAAATTTAGAGTACATAAAAAATTGGATGA [XGTACX_site7225],7.07
19,AAATAAAAAAAGAAACGTACATATATTGGTTTCGTC [XGTACX_site3510],6.96
20,AAACTATAATATATTACACACATATATTTTATAAGT [CACACA_site6460],6.92
21,AACATACATAAACACACACACACACCCACAGAGACA [CACACA_site4430],7.23
